The record followed here is article PMC4336329 (PLoS ONE, 2015).

In all, about 310,000 compounds went through this assay and about 14,000 (4.5%) showed an effect of 50% or more. Effects have a minus sign here. The list shows a part of the results.
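Note: peak tail current of the secondary pulse compared with the same well before compound.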

The target of this assay is human ether-à-go-go-related gene (hERG) potassium channel (human, UniProt Q12809). Description: primary screen, population patch clamp on CHO cells stably expressing hERG.
human ether-à-go-go-related gene (hERG) potassium channel, sequence (Q12809 whole entry, looked up): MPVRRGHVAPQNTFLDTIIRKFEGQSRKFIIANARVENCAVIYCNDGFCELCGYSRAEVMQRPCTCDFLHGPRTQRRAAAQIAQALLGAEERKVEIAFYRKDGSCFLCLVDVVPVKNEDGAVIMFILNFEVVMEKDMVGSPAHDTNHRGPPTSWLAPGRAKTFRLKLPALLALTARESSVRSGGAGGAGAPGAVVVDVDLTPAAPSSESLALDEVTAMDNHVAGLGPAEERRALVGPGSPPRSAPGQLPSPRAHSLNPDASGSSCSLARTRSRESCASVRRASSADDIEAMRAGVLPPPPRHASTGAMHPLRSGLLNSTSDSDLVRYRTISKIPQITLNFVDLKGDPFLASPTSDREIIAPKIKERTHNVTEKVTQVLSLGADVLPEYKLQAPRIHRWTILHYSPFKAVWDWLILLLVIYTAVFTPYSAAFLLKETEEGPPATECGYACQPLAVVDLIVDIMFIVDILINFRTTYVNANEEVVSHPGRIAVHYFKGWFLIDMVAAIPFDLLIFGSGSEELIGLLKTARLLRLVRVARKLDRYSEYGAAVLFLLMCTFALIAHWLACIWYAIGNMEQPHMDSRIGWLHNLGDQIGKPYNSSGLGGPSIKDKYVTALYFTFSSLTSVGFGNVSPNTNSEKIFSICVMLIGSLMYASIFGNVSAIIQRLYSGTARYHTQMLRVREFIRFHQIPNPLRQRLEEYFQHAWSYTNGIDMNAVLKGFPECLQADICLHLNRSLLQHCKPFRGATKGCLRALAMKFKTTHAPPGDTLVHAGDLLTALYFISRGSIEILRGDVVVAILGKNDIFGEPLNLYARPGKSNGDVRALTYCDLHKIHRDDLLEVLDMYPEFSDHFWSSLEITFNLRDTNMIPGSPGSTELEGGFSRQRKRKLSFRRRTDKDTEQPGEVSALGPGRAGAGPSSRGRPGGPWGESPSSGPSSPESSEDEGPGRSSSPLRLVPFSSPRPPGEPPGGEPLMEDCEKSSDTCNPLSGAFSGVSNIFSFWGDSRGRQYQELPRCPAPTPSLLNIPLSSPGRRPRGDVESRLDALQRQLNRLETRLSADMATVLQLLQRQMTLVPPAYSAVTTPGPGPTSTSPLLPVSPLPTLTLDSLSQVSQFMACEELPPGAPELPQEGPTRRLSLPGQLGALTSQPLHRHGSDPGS
In the case of `COc1ccccc1C(=O)NC(CCSC)C(=O)NC1CCCCCC1` (stereo not shown), the “hERG current change (%, negative = inhibition) at 10uM” value came out at 23%.
To `O=C(Nc1ccncc1)c1cccc(S(=O)(=O)N2CCc3ccccc32)c1` belongs -41.1%; to `Cc1ccc2ncnc(Oc3ncccc3NC(=O)C(C)(C)C)c2c1`, 13.8%; to `Cc1ccc(S(=O)(=O)N2CCN(C(=O)CNC(=O)c3ccc(Br)o3)CC2)cc1`, -45.4%.
With `O=Cc1ccc2oc3nc4n(c(=O)c3c(=O)c2c1)CCCS4`, the “hERG current change (%, negative = inhibition) at 10uM” value was -35.7%.
Turning to `O=C(NOCc1ccccc1)c1ccc([N+](=O)[O-])cc1`, the “hERG current change (%, negative = inhibition) at 10uM” value is recorded as 9.16%.
`N#CC1(NC(=O)COC(=O)Cn2[nH]c(=O)c3ccccc3c2=O)CCCCC1`: the “hERG current change (%, negative = inhibition) at 10uM” value was 2.13%.
On to `N#Cc1ccccc1Cn1cc(C(=O)c2ccco2)c2ccccc21`, for which the “hERG current change (%, negative = inhibition) at 10uM” value is -27.8%.
Take `COc1ccc(NC(=O)C2(N(C(=O)Cn3nnnc3N)c3ccc(OC)cc3)CCCCC2)cc1`: the “hERG current change (%, negative = inhibition) at 10uM” value was 24.6%.
Take `COc1ccc(OC)c(-n2c(O)cnc2Nc2nc(C)cc(C)n2)c1`: the “hERG current change (%, negative = inhibition) at 10uM” value is -3.88%.
To `CCOc1ccc(CCNC(=O)C2CCN(c3nnc(-n4cccc4)s3)CC2)cc1` belongs -0.834%; to `CCn1cc(CCC(=O)NCc2ccccc2OC)c2ccccc21`, 4.45%.
To `O=C(COC(=O)c1nc(Cl)ccc1Cl)NCCc1ccccc1` belongs 2.6%; to `CCCN=C1CC(C)(C)CC(=O)/C1=C(/O)CCC`, 15.8%; to `CCSc1nn2c(=O)c3ccccc3nc2s1`, -13.2%.
Take `Cn1c(=O)c2c(nc(CN3CCOCC3)n2CCCc2ccccc2)n(C)c1=O`: the “hERG current change (%, negative = inhibition) at 10uM” value is listed as -9%.
For `CC(C(=O)c1c[nH]c(C(N)=O)c1)c1ncc(C(F)(F)F)cc1Cl` (stereo not shown), the “hERG current change (%, negative = inhibition) at 10uM” value came out at 3.74%.
Turning to `CCN(CC)S(=O)(=O)c1ccc(C(=O)OCn2c(SC)nnc(C)c2=O)cc1`, the “hERG current change (%, negative = inhibition) at 10uM” value is reported as -10.4%.
For the compound `Cc1nnc2ccc(-c3ccc(NC(=O)c4ccc(Cl)nc4)cc3)nn12`, the “hERG current change (%, negative = inhibition) at 10uM” value was -15%.
As for `CCCc1ccc(OCCNC(C)=O)cc1`, the “hERG current change (%, negative = inhibition) at 10uM” value turned out to be 4.46%.
Regarding `O=C(Nc1ccc(O)cc1)c1cc2ccccc2c(=O)s1`, the “hERG current change (%, negative = inhibition) at 10uM” value is reported as 15.7%.
For `CCc1ccc(/C=C2/Sc3ccccc3N(CC(=O)NCC3CCCO3)C2=O)cc1` (stereo not shown), the “hERG current change (%, negative = inhibition) at 10uM” value stood at 1.25%.
For `O=C(CN1C(=O)C2CCCCC2C1=O)Nc1ccccc1C(=O)O` (stereo not shown), the “hERG current change (%, negative = inhibition) at 10uM” value came out at 10.7%.
In the case of `S=c1[nH]c(-c2ccc(Br)cc2)cn1CCc1ccccc1`, the “hERG current change (%, negative = inhibition) at 10uM” value was 8.25%.
Regarding `O=C(CSc1nc2ccccc2s1)NNC(=S)Nc1ccccc1`, the “hERG current change (%, negative = inhibition) at 10uM” value is listed as 8.28%.
